PubChem BioAssay AID686971 (National Center for Advancing Translational Sciences (NCATS), 2013)
Hit rate of the full screen: of about 360,000 compounds, about 7,500 (2.1%) were called active. Inconclusive results, whose numbers are uncertain, are shown with a selection of clear calls. Calls follow the shape of the dose curve; as a rule, active = well fitted cell-killing curve with a large enough effect; inconclusive = small, poorly fitted or top-dose-only effect, or effect the other way, or another doubt; inactive = no such curve, though single readings can be large or run the other way. Potencies of inconclusive entries are left out as doubtful fits.
Potency is read from the fitted curve at half-maximal effect; tags tell the direction and shape of the fitted curve.

Assay: qHTS for induction of synthetic lethality in tumor cells producing 2HG: qHTS for the HT-1080-IDH1KD cell line
Conditions: HT-1080 IDH1 knockdown viability, ATP luminescence, 48 h; series mostly up to 46.1 µM
Procedure, shortened: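 Assay cells: HT-1080 with IDH1 knockdown, 750 per well, RPMI/5% FBS. Exposure: 48 h at 37 °C following 2 h pre-incubation. Read: CellTiter-Glo luminescence; fitted concentration-response, curve class assigned.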
In the case of `CCCN(C)C1CN(Cc2cn(CCCC(=O)OC)nn2)S(=O)(=O)C1` (stereo unspecified), the Potency is reported as inconclusive [rising, single point].
With `COc1ccc(CC(=O)N2CCC(CCC(=O)Nc3ccccc3)CC2)cc1` the Potency was “inactive”.
In the case of `Nn1c(SCc2cccc3ccccc23)nnc1-c1ccco1`, the Potency is reported as inconclusive [cytotoxic, single point].
In the case of `Cc1nc2ccc(NC(=O)c3cccs3)cc2c(=O)n1Cc1ccc(Cl)cc1`, the Potency is reported as inconclusive [cytotoxic, single point].
With `CN(C)CCN(CC1CCCN(Cc2ccccc2F)C1)C(=O)c1ccc(Cl)cc1` (stereo unspecified) the Potency was inconclusive [cytotoxic, single point].
For `N#CCC(=O)Nc1ccc(C(=O)OCC(=O)NCCCc2ccccc2)cc1`, the Potency was “inactive”.
In the case of `Cc1c(C#N)c(N)nc(Cl)c1C#N`, the Potency is reported as inconclusive [cytotoxic, single point].
In the case of `Cc1cc(C(=O)N/N=C/c2cccnc2)c2ccccc2n1`, the Potency is reported as inconclusive [cytotoxic, single point].
In the case of `Cn1ccc2c(-c3cccc(C=O)c3)cc3c(c21)C1CCC3C1` (stereo unspecified), the Potency is reported as inconclusive [cytotoxic, single point].
For `COc1ccc(C[C@@H]2CN3C(=NC[C@@H]3C)N2C[C@H](C)NC(=O)c2ccc(C)c(Br)c2)cc1`, the Potency was “inactive”.
In the case of `Cc1ccc2[nH]c(CN3CCC(CO)(CC4CCCCO4)CC3)c(C)c2c1` (stereo unspecified), the Potency is reported as active: 13 µM.
With `CCOC(=O)C(=Cc1ccccc1)C(=O)c1ccccc1` the Potency was active: 18.4 µM.
With `C=C(C)COc1ccc(-c2nc(N)ncc2Oc2ccc(OC)cc2)c(O)c1` the Potency was inconclusive [cytotoxic, single point].
For `Cc1ccc(N)cc1NC(=O)CN1CCOCC1`, the Potency was “inactive”.
With `COc1cc(SC)ccc1C(=O)N1CCN(c2ccccc2OC)CC1` the Potency was active: 8.2 µM.
In the case of `CC(C)CC(N)c1csc(NC(=O)Nc2ccccc2C(C)C)n1` (stereo unspecified), the Potency is reported as inconclusive [cytotoxic, single point].
In the case of `O=C(Nc1cccc(NC(=O)c2cncc(Br)c2)c1)c1cncc(Br)c1`, the Potency is reported as inconclusive [cytotoxic, single point].
With `COC(=O)[C@@]12C[C@@H](CC(=O)NCc3cccc(C(F)(F)F)c3)C(=O)N(Cc3ccc4c(c3)OCO4)C1=CCC(C)(C)C2` the Potency was active: 20.6 µM.
For `O=C(Nc1cccc(C(=O)O)c1)Nc1cccc2ccccc12`, the Potency was “inactive”.
In the case of `Cn1ccsc1=NC(=O)c1cc(S(=O)(=O)N2CCOCC2)ccc1F`, the Potency is reported as “inactive”.
For `Cc1cc(S(=O)(=O)c2ccc([N+](=O)[O-])cn2)ccc1Br`, the Potency was active: 3.66 µM.
